Reference: PubChem BioAssay AID445 (National Center for Advancing Translational Sciences (NCATS), 2006)
Screen size: about 110,000 compounds; about 40 (0.04%) were called active. Inconclusive results, whose numbers are uncertain, are shown with a selection of clear calls. Calls follow the shape of the dose curve; as a rule, active = well fitted curve in the direction sought with a large enough effect in the signal ratio (not every such curve was filed as active); inconclusive = small, poorly fitted or top-dose-only effect, or a change in a side signal; inactive = flat fitted curve, though single readings scatter; the % refers to the signal ratio. A potency beside an inconclusive call is a rough fit, not a confirmed value.

Test: IkB Signaling
Settings: ABC-DLBCL IkBa-CBG/CBR dual luciferase ratio (green luciferase fused to IkBa over red control in OCI-Ly3 lymphoma cells), 4 h; IkBa stabilization activation: at 57.1 µM (top of the series), scaled: untreated 0%, proteasome inhibitor 100% unless noted
Procedure, shortened: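 Curves were fitted separately to fusion (green), unfused (red) and ratio luminescence, then classed by r2, magnitude and activity. Cells: OCI-Ly3, 4 h compound plus doxycycline at 37C; 10 uM MG-132 defined full response.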
Potency is read from the fitted curve at half-maximal effect.

Row | SMILES | IkBa stabilization activation | Potency
1 | CCC1CCCCN1S(=O)(=O)c1ccc(C(=O)Nc2nnc(-c3cccs3)o2)cc1 (stereo unspecified) | inactive: 3.42% | 
2 | Clc1ccc(CNc2ncnc3onc(-c4ccc(Cl)cc4)c23)cc1 | inconclusive: 0.69% [signal inhibitor] | 
3 | CCOC(=O)c1sc(NC(=O)c2ccc(CC)s2)nc1C | inactive: -0.103% | 
4 | COc1ccc(C(=O)NCc2ccc3c(c2)CCN3C(=O)c2ccc(Cl)cc2)c(OC)c1 | inconclusive: 2.02% [signal inhibitor] | 
5 | COc1cc(OC)cc(C(=O)Nc2cccc(-c3cn4ccsc4n3)c2)c1 | inconclusive: 6.76% [signal inhibitor] | 
6 | CCN1CCN(C(=O)C2CCN(C(=O)c3cc4sccc4n3CC)CC2)CC1 | inactive: 0.738% | 
7 | O=C(COc1ccccc1Cl)Nc1ccc2nc(SCC(=O)N3CCOCC3)sc2c1 | inconclusive: 1.29% [signal inhibitor] | 
8 | Cc1ccc(NC(=O)CSc2nccn2-c2ccccc2)cc1 | inactive: 4.46% | 
9 | CCOc1cccc2cc(C(=O)Nc3cc(C)on3)c(=O)oc12 |  | inconclusive: 1.58 µM [signal inhibitor, full curve]
10 | CN(C)c1ncc2nc(-c3ccccc3)c(=O)n(C[C@H]3CCCO3)c2n1 | inactive: -3.94% [at 11.4 µM, scaled: untreated 0%, proteasome inhibitor 100%] | 
11 | Cc1ccccc1Cn1cc(S(=O)(=O)c2ccc(F)cc2)c(=O)c2cc3c(cc21)OCO3 | inconclusive: 1.28% [signal inhibitor] | 
12 | Cc1ccc(NC(=O)Cn2c(=O)n(CCCCC(=O)NCCc3ccccc3)c(=O)c3ccccc32)cc1 | inactive: -1.7% | 
13 | O=C(c1ccccc1-c1nc(-c2ccc(Cl)cc2)no1)N1CCCC1 | inconclusive: 2.11% [signal inhibitor] | 
14 | COC(=O)c1sccc1S(=O)(=O)N(CC(=O)Nc1cc(F)ccc1F)c1ccc(C)c(C)c1 |  | inconclusive: 12.6 µM [signal inhibitor]
15 | CCc1ccc(-c2[nH]nc3nc(-c4cc(OC)ccc4OC)cc(C(=O)O)c23)cc1 | inactive: 15.7% | 
16 | CCOC(=O)c1cc(C)sc1N1C(=O)C2C3C=CC(C3)C2C1=O (stereo unspecified) | inactive: -0.438% | 
17 | Cn1nc(C(=O)NCc2ccccc2Cl)c2c1-c1ccccc1SC2 | inactive: 1.85% | 
18 | CCN(CC)c1nn2c(=O)c(C(=O)NCc3ccccc3Br)cnc2s1 | inconclusive: -1.73% [signal inhibitor] | 
19 | CCOc1ccc(NC(=O)N2CCN(C(=O)c3nsc4ccccc34)CC2)cc1 | inconclusive: 0.902% [signal inhibitor] | 
20 | Cc1cccc(NC(=O)c2ccc(Cn3nc(N4CCN(c5ccccc5)CC4)ccc3=O)o2)c1C | inconclusive: 12.1% [signal inhibitor] | 
21 | O=S(=O)(Nc1cccc(-c2ccc(N3CCOCC3)nn2)c1)c1ccc(F)c(C(F)(F)F)c1 | inconclusive: 2.29% [signal inhibitor] | 
22 | COc1ccc(CCNC(=O)c2ccc3c(c2)CCN3S(=O)(=O)c2ccc(C)cc2)cc1OC | inactive: 0.369% | 
23 | COc1ccc(-c2cc(C(F)(F)F)nc(SCC(=O)N(C)Cc3ccccc3)n2)cc1 | inconclusive: 0.0476% [signal inhibitor] | 
24 | Cc1ccc(C(=O)NC2CCCCCC2)cc1N1CCCC1=O | inactive: 1.87% | 

Row | SMILES | IkBa stabilization activation | Potency
25 | COc1ccc(-c2nn(C)c(=O)c3ccccc23)cc1NC(=O)Cn1nc(C)c2ccccc2c1=O | inconclusive: 0.725% [signal inhibitor] | 
26 | COc1ccc(OC)c(CNC(=O)NCc2noc3ccc(C)cc23)c1 | inconclusive: 0.0621% [signal inhibitor] | 
27 | O=C(CSc1cn(CC(=O)N2CCCCC2)c2ccccc12)NCc1ccccc1Cl | inconclusive: 3.64% [signal inhibitor] | 
28 | COc1ccccc1OCC(=O)c1[nH]c(C)c(C(C)=O)c1C | inconclusive: 2.9% [signal inhibitor] | 
29 | O=C(CN1C(=O)c2cccnc2Sc2ccccc21)Nc1cc(F)ccc1F | inconclusive: 8.38% [signal inhibitor] | 
30 | COc1ccccc1N(CC(=O)Nc1ccccc1C(F)(F)F)S(=O)(=O)c1ccc(C)cc1 | inconclusive: 14.4% [signal inhibitor] | 
31 | Cc1ccc(C)c(N2CCN(C(=O)Cn3nc(C)c4sc5ccccc5c4c3=O)CC2)c1 | inconclusive: 0.523% [signal inhibitor] | 
32 | CCC(O)c1nc2ccccc2n1Cc1cc(C)ccc1C (stereo unspecified) | inconclusive: 0.385% [signal inhibitor] | 
33 | Cc1oc2ccc(O)c(CN3CCCCCC3)c2c1C(=O)Nc1cccc(C(F)(F)F)c1 | inactive: 3.22% | 
34 | O=C(CSc1nc2ccccc2c(=O)n1C1CC1)NCc1ccccc1 | inactive: -0.236% | 
35 | CC(C)Nc1ncnc2c1cnn2-c1ccccc1 | inconclusive: 10.4% [signal inhibitor] | 
36 | CCCOc1ccccc1-c1nc(SCCC(=O)O)n[nH]1 | inconclusive: 11.9% [signal inhibitor] | 
37 | Cc1ccc(C(=O)Nc2nc3ccccc3n2CCN2CCCC2)cc1 |  | inconclusive: 25.1 µM [rising, partial curve]
38 | COc1ccc(C)cc1NS(=O)(=O)c1ccc2oc(=O)c3ncn(C)c3c2c1 | inactive: -0.0948% | 
39 | COc1ccc(CNC(=O)C2(c3cccs3)CCOCC2)cc1 | inconclusive: 3.23% [signal inhibitor] | 
40 | CCNc1c2c3c(cccc3n(C)c1=O)C(=O)c1ccccc1-2 | inconclusive: -1.36% [signal inhibitor] | 
41 | CCN(CC)S(=O)(=O)c1cccc(C(=O)Nc2ccccc2C(=O)Nc2ccc(OC)cc2)c1 | inconclusive: 3.55% [signal inhibitor] | 
42 | Cc1nn(CC(O)Cn2c3c(c4ccccc42)CCN(C)C3=O)c(C)c1Br (stereo unspecified) | inconclusive: 1.04% [signal inhibitor] | 
43 | CCOc1ccc(NC(=O)c2c(NCc3cccs3)sc3c2CCC(C)C3)cc1 (stereo unspecified) | inconclusive: -2.55% [signal inhibitor] | 
44 | COc1ccc(NC(=O)Nc2cc(C(=O)NCc3ccc(C)cc3)ccc2N2CCCC2)cc1 | inactive: 0.135% | 
45 | CCCCN(C)CCCNC(=O)c1cn(CC)c2ccc(S(=O)(=O)N3CCc4ccccc4C3)cc2c1=O | inconclusive: -0.472% [signal inhibitor] | 
46 | COc1ccccc1CNC(=O)c1cc(S(=O)(=O)N2CCCC(C)C2)cn1C (stereo unspecified) | inconclusive: 1.62% [signal inhibitor] | 
47 | CCc1ccc(NC(=O)CC2C(=O)N(c3ccc(F)cc3)C(=O)N2Cc2ccc(F)cc2)cc1 (stereo unspecified) | inconclusive: 1.18% [signal inhibitor] | 
48 | Cc1ccc(-n2nc(C)c3c(C(F)(F)F)cc(-c4cccnc4)nc32)cc1C | inconclusive: 1.74% [signal inhibitor] | 

Row | SMILES | IkBa stabilization activation | Potency
49 | O=C(Nc1cccnc1)c1cc2c(ccc3ccccc32)o1 |  | inconclusive: 20 µM [signal inhibitor, partial curve]
50 | Cc1ccc2oc(-c3ccc(NC(=O)c4oc5ccc(Cl)cc5c4C)cc3)nc2c1 | inactive: 0.692% | 
51 | Cc1ccc2nc(C(O)C(O)c3nc4ccc(C)cc4[nH]3)[nH]c2c1 (stereo unspecified) | inconclusive: 3.32% [signal inhibitor] | 
52 | O=C(c1cnn(-c2ccc(F)cc2)c1-n1cccc1)N1CCN(c2ccccc2)CC1 | inconclusive: -0.941% [signal inhibitor] | 
53 | Cc1ccc(-n2ncc3c(=O)[nH]c(SCC(=O)N4CCOCC4)nc32)cc1 | inactive: -0.76% | 
54 | CCOc1ccc(-c2cn3nc(CC(C)C)sc3n2)cc1 | inactive: -1.83% | 
55 | O=C1Nc2ccc(S(=O)(=O)N3CCCCCC3)c3cccc1c23 | inactive: 3.75% | 
56 | Nc1c(C(=O)OCC2CCCO2)c2nc3ccccc3nc2n1C1CCCC1 (stereo unspecified) | inactive: 0.396% | 
57 | COc1ccc(CC(=O)NCC(c2cccs2)S(=O)(=O)c2ccc(F)cc2)cc1 (stereo unspecified) | inconclusive: 1.55% [signal inhibitor] | 
58 | Cc1ccc(CNC(=O)c2c(Nc3ccccc3C)sc(C(=O)c3ccc(F)cc3)c2N)cc1 |  | inconclusive: 39.8 µM [signal inhibitor]
59 | COc1cccc(-c2nn(C)c3sc(C(=O)NCc4ccc(OC)cc4OC)cc23)c1 | inconclusive: 0.0734% [signal inhibitor] | 
60 | O=C(CN1CCN(Cc2ccccc2F)C1=O)NCc1ccccc1 | inactive: 0.53% | 
61 | CC(C)c1cc(-c2nc(-c3ccc(Cl)cc3)no2)n[nH]1 |  | inconclusive: 31.6 µM [signal inhibitor]
62 | CCc1cnc2c(c1SC(C(C)=O)C(=O)N(C)C)c(=O)n(C)c(=O)n2C (stereo unspecified) | inactive: 0.619% | 
63 | O=C(CCn1c(=O)c2ccccc2n(CC(=O)Nc2ccc(F)cc2)c1=O)NCCc1ccccc1 |  | inconclusive: 15.8 µM [signal inhibitor]
64 | CCc1ccc(C2CC(=O)Nc3c2c(=O)nc2c(C)cccn32)cc1 (stereo unspecified) | inconclusive: -0.781% [signal inhibitor] | 
65 | COc1ccccc1C(=O)Nc1ccc(C(=O)OCc2cc(=O)n3c4c(sc3n2)CCCC4)cc1 | inconclusive: 3.6% [signal inhibitor] | 
66 | Cc1ccc(CNC(=O)c2c(Nc3c(C)cccc3C)sc(C(=O)c3ccccc3)c2N)cc1 | inconclusive: 12.5% [signal inhibitor] | 
67 | COc1ccccc1NC(=O)c1cnn(-c2ccccc2)c1-n1cccc1 | inconclusive: 8.36% [signal inhibitor] | 
68 | c1ccc(-c2cn3nc(-c4ccccc4)sc3n2)cc1 |  | inconclusive: 31.6 µM [falling, single point]
69 | CCOC(=O)c1ccccc1NC(=O)c1c(C)oc2ncnc(N3CCOCC3)c12 | inconclusive: -0.22% [signal inhibitor] | 
70 | Cc1ccccc1-c1ccc2ncnc(-n3ccnc3)c2c1 |  | inconclusive: 3.98 µM [rising, partial curve]
71 | c1ccc(-c2cccc(-c3ccccn3)n2)nc1 | inactive: 1.84% | 
